Reference: a collection of fitness landscapes (doi:10.1016/j.celrep.2020.107928)
In all, about 81,000 sequences were measured (“one-hybrid fitness for binding NBS DNA”: median about -0.1, highest 2% from about 0.36 on). This is one part of the list.

B1: Caulobacter ParB omega fusion; a variant is named by its letters at X, in order, B8GW30 (parent)
chain: MESVVVGEPGMSEGRRGLGRGLSALLGEVDAAPAQAPGEQLGGSREAPIEILQRNPDQPRRTFREEDLEDLSNSIREKGVLQPILVRPSPDTAGEYQIVAGERAWRAAQRAGLKTVPIMVRELDDLAVLEIGIIENVQRADLNVLEEALSYKVLMEKFERTQENIAQTIGKSXSHVANXMRLLXLPDEVQSYLVSGELTAXHARAIAAAADPVALAKQIIEGGLSVRETEALARKAPNLSAGKSKGGRPPRVKDTDTQALESDLSSVLGLDVSIDHRGSTGTLTITYATLEQLDDLCNRLTRGI

Variants of: B1
Test: one-hybrid fitness for binding NBS DNA (the Noc-binding site; scaled: cognate 1, non-cognate 0); higher = stronger binding
Conditions: with NBS DNA site
Outline: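 In E. coli USO, a HIS3 reporter with its site placed 19 bp from the promoter was used to select Caulobacter ParB variants randomised at four specificity codons. Growth lasted 48 hours at 37°C on histidine-free M9 containing 0.1 mM IPTG and 5 mM 3-AT. Fitness was taken as the log change in variant-to-wild-type read ratio from Illumina sequencing of pre- and post-selection plasmids, rescaled between the non-cognate and cognate sites.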

| Variant | one-hybrid fitness for binding NBS DNA |
| --- | --- |
| CIVR | ≤ 0.2 |
| FWKT | ≤ 0.2 |
| PDWG | ≤ 0.2 |
| RMIT | 0.253 |
| RARY | 0.265 |
| RAIS | ≤ 0.2 |
| TSEM | ≤ 0.2 |
| FLLC | ≤ 0.2 |
| LLYL | ≤ 0.2 |
| GKMC | ≤ 0.2 |
| LCSC | ≤ 0.2 |
| DAKS | ≤ 0.2 |
| HRYH | ≤ 0.2 |
| ARAY | ≤ 0.2 |
| CYKM | ≤ 0.2 |
| WFKL | ≤ 0.2 |
| PEMT | ≤ 0.2 |
| ADAA | ≤ 0.2 |
| TSPT | ≤ 0.2 |
| TSKN | ≤ 0.2 |
| FMPT | ≤ 0.2 |
| FPDT | ≤ 0.2 |
| QTMP | ≤ 0.2 |
| QTDT | 0.448 |
| FPRR | ≤ 0.2 |

| Variant | one-hybrid fitness for binding NBS DNA |
| --- | --- |
| EVTL | ≤ 0.2 |
| ADER | ≤ 0.2 |
| EACG | ≤ 0.2 |
| RLSG | ≤ 0.2 |
| VYTL | ≤ 0.2 |
| GECK | ≤ 0.2 |
| VGTE | ≤ 0.2 |
| TTDD | ≤ 0.2 |
| CRFE | ≤ 0.2 |
| QRLT | 0.731 |
| MRHL | ≤ 0.2 |
| KMCF | ≤ 0.2 |
| WPLR | ≤ 0.2 |
| STFL | ≤ 0.2 |
| PVDS | ≤ 0.2 |
| GAYC | ≤ 0.2 |
| QNSW | ≤ 0.2 |
| HNMG | 0.257 |
| WSTV | ≤ 0.2 |
| HYHG | ≤ 0.2 |
| TLSQ | ≤ 0.2 |
| QAAR | 0.511 |
| RKWL | ≤ 0.2 |
| MFAA | ≤ 0.2 |
| LDRS | ≤ 0.2 |

| Variant | one-hybrid fitness for binding NBS DNA |
| --- | --- |
| QAAG | ≤ 0.2 |
| VPNT | ≤ 0.2 |
| HWQR | ≤ 0.2 |
| FQRR | ≤ 0.2 |
| RPMP | ≤ 0.2 |
| QTHT | 0.648 |
| FSCR | ≤ 0.2 |
| IEPS | ≤ 0.2 |
| RCPK | ≤ 0.2 |
| SHGR | ≤ 0.2 |
| MTSV | ≤ 0.2 |
| ASRF | ≤ 0.2 |
| AQSL | ≤ 0.2 |
| LMEM | ≤ 0.2 |
| QSHT | 0.429 |
| QCDE | ≤ 0.2 |
| APSF | ≤ 0.2 |
| TDYF | ≤ 0.2 |
| QKTA | 0.295 |
| PDSA | ≤ 0.2 |
| CCSL | ≤ 0.2 |
| YKHR | ≤ 0.2 |
| PQQC | ≤ 0.2 |
| QTHS | 0.585 |
| LPSM | ≤ 0.2 |

| Variant | one-hybrid fitness for binding NBS DNA |
| --- | --- |
| PGDC | ≤ 0.2 |
| MRGR | ≤ 0.2 |
| MDDM | ≤ 0.2 |
| QMNA | 0.276 |
| NQAS | ≤ 0.2 |
| DTSV | ≤ 0.2 |
| TFAY | ≤ 0.2 |
| PYME | ≤ 0.2 |
| NYGC | ≤ 0.2 |
| TVSK | ≤ 0.2 |
| GEDG | ≤ 0.2 |
| WRAW | ≤ 0.2 |
| TPPC | ≤ 0.2 |
| PCQW | ≤ 0.2 |
| MNWI | ≤ 0.2 |
| LVRC | ≤ 0.2 |
| AMYV | ≤ 0.2 |
| FKHG | ≤ 0.2 |
| MDCV | ≤ 0.2 |
| KCSG | ≤ 0.2 |
| LTVT | ≤ 0.2 |
| LDNT | ≤ 0.2 |
| YLRT | ≤ 0.2 |
